Measured values as given in PMC6919601, “Identification of Plasmodium dipeptidyl aminopeptidase allosteric inhibitors by high throughput screening” (PLoS ONE, 2019).
Among all 110,000 compounds or so, about 230 (0.21%) showed an effect of 50% or more. This is one part of the list.

Biological target: DPAP1 (Plasmodium falciparum, UniProt Q8IIJ9)
Assay: primary screen, percent inhibition; read by cleavage of a fluorogenic dipeptide substrate; higher = more effect of the substance
Design: species or system P. falciparum D10 trophozoite lysates; single well
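Further: 30 min substrate incubation versus DMSO and 10 µM JCP410 controls.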

Chain of DPAP1 (Q8IIJ9 whole entry, looked up): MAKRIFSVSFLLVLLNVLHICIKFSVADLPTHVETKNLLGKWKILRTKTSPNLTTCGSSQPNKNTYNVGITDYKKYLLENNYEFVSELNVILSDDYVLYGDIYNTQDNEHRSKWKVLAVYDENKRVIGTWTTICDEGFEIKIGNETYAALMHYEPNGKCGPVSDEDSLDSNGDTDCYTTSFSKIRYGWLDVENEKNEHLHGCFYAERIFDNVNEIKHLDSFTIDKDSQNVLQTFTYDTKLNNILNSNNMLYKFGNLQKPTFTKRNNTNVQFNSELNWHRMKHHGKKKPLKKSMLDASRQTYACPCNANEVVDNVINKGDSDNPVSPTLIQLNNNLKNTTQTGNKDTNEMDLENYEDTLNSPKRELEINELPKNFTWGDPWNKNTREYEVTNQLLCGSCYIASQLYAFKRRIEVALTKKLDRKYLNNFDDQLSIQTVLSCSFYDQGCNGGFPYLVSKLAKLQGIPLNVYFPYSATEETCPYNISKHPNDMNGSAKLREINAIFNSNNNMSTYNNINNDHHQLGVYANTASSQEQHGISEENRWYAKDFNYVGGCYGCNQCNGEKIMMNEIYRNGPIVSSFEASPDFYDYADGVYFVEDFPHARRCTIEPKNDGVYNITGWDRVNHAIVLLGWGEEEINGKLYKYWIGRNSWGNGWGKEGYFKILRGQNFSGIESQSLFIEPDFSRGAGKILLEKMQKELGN

Row | Structure (SMILES) | % Inhibition @ 10 uM [%]
1 | Cc1ccccc1-n1cc(-c2ccc3c(c2)OCO3)nc1S | 83.7
2 | Cc1nn(-c2ccc3nnc(C)n3n2)c(C)c1CCC(=O)O | 0.708
3 | COc1cccc(/C=C/C2=NN(c3ccc(Cl)c(Cl)c3)C(c3cccc(OC)c3OC)C2)c1OC (stereo not drawn) | 1.8
4 | CCC(C)NC(=O)c1c(C)cc(=O)oc1C (stereo not drawn) | -4.06
5 | Cc1ccc(Nc2nc(-c3cccc(N4C(=O)c5ccccc5C4=O)c3)cs2)cc1C | -2.51
6 | Cc1cc2c(cc1C)[n+](C)cn2CC(O)COCC1CC=CCC1 (stereo not drawn) | -1.06
7 | Cc1ccc(S(=O)(=O)N(CC(=O)NC2CC3CCC2C3)c2ccc(F)cc2)cc1 (stereo not drawn) | -1.04
8 | CN1CCc2c1nc1ccc(Cl)cc1c2N | 7.92
9 | Cc1ccc2c(c1)-c1c(cnn1CC(=O)N1CCCN(Cc3ccccc3Cl)C1)CO2 | -5.72
10 | Cc1ccc(C)c(Cn2c3ccccc3c3cnn(CC(=O)NCCCN4CCCC4=O)c(=O)c32)c1 | 1.8
11 | CS(=O)(=O)c1nc(S(=O)(=O)c2ccc(Cl)cc2)c(N2CCCCCC2)s1 | 1.15
12 | NC(=O)C1CCN(Cc2ccc(F)c(Br)c2)CC1 | 3.48
13 | COCC(C)NC(=O)c1cnn2c1NC(c1ccccc1)CC2C(F)(F)F (stereo not drawn) | -3.1
14 | O=c1c(N2CCCC2)c(Cl)cnn1Cc1ccccc1 | 5.09
15 | COc1ccc(S(=O)(=O)Nc2ccc(-c3csc(C)n3)cc2)cc1OC | -1.99
16 | CCOC(=O)N1CCN(CC(O)COc2ccc(OC)cc2)CC1 (stereo not drawn) | 5.67
17 | CC(C)NC(=O)c1cc2c(-c3ccc(Cl)cc3)nn(C)c2s1 | -4.96
18 | O=C1N/C(=C/c2ccc(Sc3ccccc3)o2)C(=O)N1Cc1ccccc1F | -0.0626
19 | Nc1ccc(-c2nc3ccccc3o2)c(O)c1 | -5.68
20 | COCCNC(=O)c1ccc(CS(=O)(=O)c2ccccc2)o1 | -4.96
21 | N#CCNC(=O)C(NC(=O)c1ccccc1)SCCc1ccccc1 (stereo not drawn) | -1.83
22 | Cc1oc2ncn3nc(COc4cccc(Cl)c4)nc3c2c1C | -1.86
23 | CN(Cc1c(F)cccc1F)CC(O)c1ccccc1 (stereo not drawn) | -1.75
24 | Cc1ccccc1Cn1c2ccccc2c2cnn(CC(=O)N(C)Cc3ccccc3)c(=O)c21 | 1.8
25 | Cc1cccc(C(=O)Nc2nn3c(-c4ccccc4C)nnc3s2)c1 | 12

Row | Structure (SMILES) | % Inhibition @ 10 uM [%]
26 | CC(C)(C)NC(=O)CSCc1c(Cl)cccc1Cl | 6.24
27 | CC(C)C[C@H](NC(=O)OCc1ccccc1)C(=O)NC1(C#N)CCS(=O)(=O)CC1 | 18
28 | Cc1ccc(CC2(NC(=O)c3ccccc3)N=C3C=CC=CN3C2=O)cc1 (stereo not drawn) | -0.637
29 | Cc1cc(C)c2nc(N3CCC(C(=O)N4CCN(C(=O)c5ccco5)CC4)CC3)sc2c1 | -3.35
30 | CN1CCN(Cc2nc3c(c(=O)n(C)c(=O)n3C)n2Cc2ccc(F)cc2)CC1 | -8.06
31 | Cc1ccc(-c2cc(C(=O)NCC3CCCO3)c3ccccc3n2)cc1C (stereo not drawn) | -0.519
32 | CC(=O)Nc1ccc(-n2c(C)ccc2C)cc1 | -0.736
33 | O=C(/C=C/c1ccc2c(c1)OCO2)c1ccncc1 | -6.47
34 | COc1cc(CN2CCN(C(=O)Cc3ccccc3)CC2)cc(OC)c1OC | 2.3
35 | CN(Cc1ccccc1)c1ncnc2onc(-c3ccc(Cl)cc3)c12 | -0.495
36 | NC(=O)N1CCN(C(=O)c2ccco2)CC1 | -6.99
37 | CC(CCN1CCCCC1CO)c1ccccc1 (stereo not drawn) | 2.1
38 | CC1CCCN(C(=O)Nc2cn(C)c(=O)c3ccccc23)C1 (stereo not drawn) | -0.546
39 | CC1=C(C(=O)Nc2cccc(F)c2)C(c2ccccc2Cl)C2=C(O)CCCC2=N1 (stereo not drawn) | 4.11
40 | CCCC(=O)NC(=O)/C(C#N)=C/Nc1cc(Cl)ccc1C | -1.06
41 | CCS(=O)(=O)c1ncc(Cl)c(C(=O)N(Cc2ccccc2Cl)C2CCS(=O)(=O)C2)n1 (stereo not drawn) | 1.99
42 | COc1cc(C)c(CN2CCN(c3cccc(Cl)c3)CC2)cc1C | -1.86
43 | c1ccc(-c2ccnc(-c3nccs3)n2)cc1 | 3.24
44 | COc1ccc(CC(=O)Nc2ccc(C)c(C)c2)cc1 | 0.526
45 | COc1cccc(OC)c1C(=O)Nc1nc2c(C)cccc2s1 | -3.29
46 | Cc1ccc(-c2nc3sc(-c4ccc(C)cc4)nc3s2)cc1 | 3.32
47 | Cc1cc(C)c(N2C(=O)C3C4C=CC(O4)C3C2=O)c(C)c1 (stereo not drawn) | -3.12
48 | CC(C)/N=C/C1=C(O)c2sccc2N(Cc2cccc(F)c2)S1(=O)=O | 1.92
49 | CCC(C)NS(=O)(=O)c1ccc(-n2cccn2)cc1 (stereo not drawn) | -3.9
50 | O=C(CN1C(=O)C2C3CCC(C3)C2C1=O)Nc1cccc(Cl)c1 (stereo not drawn) | -1.22

Row | Structure (SMILES) | % Inhibition @ 10 uM [%]
51 | C=CCn1c(NCc2cc(OC)c(OC)c(OC)c2)nc2ccccc21 | 4.8
52 | Cc1ccc(C2=NN(C(=O)CCN3CCOCC3)C(c3ccco3)C2)cc1 (stereo not drawn) | 2.56
53 | Fc1ccccc1N1CCN(Cc2cccc(Oc3ccccc3)c2)CC1 | -6.47
54 | CC(C)CCN(C)C1CCN(S(=O)(=O)c2cccc(Cl)c2)CC1 | 0.387
55 | O=C(O)CCCNC(=O)c1ccccn1 | 0.0345
56 | N=c1n(CC(=O)O)c2ccccc2n1Cc1ccccc1Cl | -9.3
57 | CC(C)(C)c1cc(C(C)(C)C)c2[nH]c3c(C(C)(C)C)cc(C(=O)C(F)(F)F)cc3c2c1 | 4.22
58 | CN1CC=C(CNc2cccc3c2CCCC3)CC1 | 2.33
59 | Nc1c(-c2nc(-c3ccncc3)no2)nnn1-c1ccccc1F | -2.44
60 | CN(C)c1ccc(C2C(C(=O)c3cc4ccccc4o3)=C(O)C(=O)N2CCCN2CCOCC2)cc1 (stereo not drawn) | -0.865
61 | O=C1N/C(=C/c2ccsc2)C(=O)N1Cc1ccc(F)cc1 | -3.41
62 | CCCC1=NN(C(=O)Cc2ccc(OC)cc2)C(O)(C(F)(F)F)C1 (stereo not drawn) | 2.43
63 | Cc1ccc(-c2nc3ncccc3o2)cc1NC(=O)c1ccc(Br)o1 | -7.34
64 | COC(=O)C1=C(C)NC(=O)CC1c1ccc(Cl)cc1 (stereo not drawn) | -1.96
65 | COCCCNC(=O)CSCc1c(Cl)cccc1Cl | 1.37
66 | O=C(CN1C(=O)S/C(=C/c2cccc(F)c2)C1=O)Nc1ccc(F)cc1 | -4.39
67 | CC(C)(C)CC(OC(=O)N1CCOCC1)C(=O)NCC#N (stereo not drawn) | -8.81
68 | CC(=O)Nc1nc(Cn2c(-c3nonc3NC(C)=O)nc3ccccc32)nc(NC(C)=O)n1 | 0.503
69 | Cc1c(-c2nsc(NC(=O)c3cccc(F)c3)n2)nnn1-c1ccc(Br)cc1 | 0.234
70 | O=C(COCc1cc(-c2ccc(F)cc2)on1)NCc1ccc(Cl)cc1 | -6.91
71 | COc1ccccc1C(=O)Nc1cc(C)ccc1C | -1.98
72 | Cc1ccc(-n2nc(C)c3c(C(F)(F)F)cc(=O)n(CC(=O)NCc4ccc5c(c4)OCO5)c32)cc1 | 1.63
73 | COCC(=O)n1nc(-c2ccco2)nc1NCc1ccccc1 | -3.24
74 | Cc1cccc(OCc2nc(C#N)c(NCc3cccnc3)o2)c1 | -1.38
75 | O=C(O)COc1ccccc1C1C2=C(O)CCCC2=NC2=C1C(=O)CCC2 (stereo not drawn) | -2.45

Row | Structure (SMILES) | % Inhibition @ 10 uM [%]
76 | Cc1cc(NC(=O)CN2CCCC2)c2ccccc2n1 | 1.9
77 | COc1ccccc1CNC(=O)c1sc2nc(-c3ccc(OC)c(OC)c3)ccc2c1N | 0.161
78 | O=C(NC1(C(Cl)(Cl)Cl)Oc2ccccc2O1)C(F)(F)F | 1.12
79 | CCN1CCC(NCc2ccc(Cl)cc2)CC1 | -1.5
80 | COc1ccc(C2(C(=O)NCc3ccco3)CCCC2)cc1OC | 3.87
81 | C=CCS(=O)(=O)c1nc2ccc([N+](=O)[O-])cc2s1 | -0.636
82 | CC(C)CC(NC(=O)OCc1ccccc1)C(=O)NC(CC(C)C)C(=O)NC(CC(C)C)C(=O)Nc1c(NCc2ccccc2)c(=O)c1=O (stereo not drawn) | -3.14
83 | COc1cccc2c1cc1c(=O)n(CC(=O)N3CCN(C)CC3)nc(C)n12 | -5.55
84 | CCC(C)(Nc1ccc(C)cc1)c1nnnn1C(/C=C\c1ccc(Cl)cc1Cl)C(C)(C)C (stereo not drawn) | -1.29
85 | Cc1nnc(N2CCCC(C(=O)NCc3ccc(OC(C)C)cc3)C2)c2nn(-c3ccccc3)c(C)c12 (stereo not drawn) | -0.518
86 | COc1ccc(/C=C2/SC(c3ccc(C)cc3)=NC2=O)c(OC)c1 | -1.96
87 | Cn1c2c(c(=O)n(C)c1=O)C(c1ccc(Cl)cc1)C(C#N)=C(N)O2 (stereo not drawn) | -7.67
88 | CCCN1CCC(NCCc2ccccc2)CC1 | 4.54
89 | Cc1ccc(COc2ccc(/C=C3/C(=N)N4C(=NC3=O)SN=C4S(C)(=O)=O)cc2)cc1 | -7.21
90 | Cn1c(=O)c2c(nc(Sc3nc[nH]n3)n2C)n(C)c1=O | 0.315
91 | Cc1nn(C)c2c1c(-c1ccccc1)cc(=O)n2Cc1cc(=O)n2cc(Cl)ccc2n1 | -2.6
92 | CN(Cc1nc2ccccc2n1C)C(=O)c1cccs1 | 1
93 | CCOC1=C(C)C(c2ccccc2)Oc2ccccc21 (stereo not drawn) | -3.35
94 | Cc1ccnc(NC(=O)c2cc3c(=O)oc4ccc(C)cc4c3s2)c1 | 2.5
95 | CCN1CCN(C(=O)c2ccc(N)cc2C(=O)O)CC1 | -0.891
96 | Cc1nnc(N2CCCC(C(=O)N(C)Cc3ccccc3)C2)c2nn(-c3ccccc3)c(C)c12 (stereo not drawn) | -0.341
97 | CCC(C)Sc1nc2c(c(=O)[nH]c(=O)n2C)n1Cc1cccc(C)c1 (stereo not drawn) | 0.746
98 | CC1(C)CC2=Nc3ccccc3N(C(=O)c3ccccc3)C(c3ccco3)C2=C(O)C1 (stereo not drawn) | -1.08
99 | COC(=O)c1c(C)oc2cc(Br)c(O)cc12 | 4.66
